# Test results reported in paper PMC6919601, “Identification of Plasmodium dipeptidyl aminopeptidase allosteric inhibitors by high throughput screening” (PLoS ONE, 2019).
# In all, about 110,000 compounds went through this assay and about 230 (0.21%) showed an effect of 50% or more. The list shows a part of the results.
# Target: DPAP1 (Plasmodium falciparum, UniProt Q8IIJ9)
# Assay: primary screen, percent inhibition; read by cleavage of a fluorogenic dipeptide substrate; higher = more effect of the substance
# Design: species or system P. falciparum D10 trophozoite lysates; single well
# 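Further: 30 min substrate incubation versus DMSO and 10 µM JCP410 controls.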
# Sequence of DPAP1 (Q8IIJ9 whole entry, looked up): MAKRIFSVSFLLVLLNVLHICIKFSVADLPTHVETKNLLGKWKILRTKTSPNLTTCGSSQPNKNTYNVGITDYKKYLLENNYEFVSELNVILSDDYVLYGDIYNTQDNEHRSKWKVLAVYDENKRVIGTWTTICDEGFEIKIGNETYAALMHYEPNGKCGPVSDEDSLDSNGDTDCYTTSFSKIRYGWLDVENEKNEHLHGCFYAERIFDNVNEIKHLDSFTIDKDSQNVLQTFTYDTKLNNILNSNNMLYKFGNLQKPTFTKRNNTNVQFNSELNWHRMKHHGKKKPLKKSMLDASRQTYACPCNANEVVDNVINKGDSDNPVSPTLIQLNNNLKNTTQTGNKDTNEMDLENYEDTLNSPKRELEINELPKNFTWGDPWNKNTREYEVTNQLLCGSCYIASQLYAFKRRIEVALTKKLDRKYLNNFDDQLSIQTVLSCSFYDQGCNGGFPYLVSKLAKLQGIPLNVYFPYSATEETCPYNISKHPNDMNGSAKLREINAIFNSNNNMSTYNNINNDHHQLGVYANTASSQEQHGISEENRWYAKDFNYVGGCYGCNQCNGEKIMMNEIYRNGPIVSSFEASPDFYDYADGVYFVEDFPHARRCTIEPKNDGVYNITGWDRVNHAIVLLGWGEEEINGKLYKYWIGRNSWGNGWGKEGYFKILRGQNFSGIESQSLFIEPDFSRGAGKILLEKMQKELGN
row,Structure (SMILES),% Inhibition @ 10 uM [%]
1,CCOc1ccc(-n2cc(-c3ccc(Br)cc3)nc2O)cc1,1.23
2,Cc1nc2ccn(Cc3cccnc3)c(=O)c2cc1C(=O)NCC1CCCO1 (centres unmarked),-3.62
3,CN1CCN(c2nc(-c3ccc(C(=O)N4CCCC(C(=O)NCC#N)C4)cc3)cs2)CC1 (centres unmarked),0.079
4,C=Cc1ccc(Cn2c(C(=O)O)c(CNCCc3ccccc3C)c3ccc(C)cc32)cc1,0.00226
5,Cc1ccc(C2=NN3C(C2)c2cc(Br)ccc2OC3c2ccncc2)s1 (centres unmarked),0.628
6,CCOc1ccc(OCc2cccc(C(=O)N3N=C(C(F)F)CC3(O)C(F)F)c2)cc1 (centres unmarked),-5.6
7,Cc1cc(NC(=O)CSc2nc3nccnc3c(=O)n2Cc2ccccc2Cl)[nH]n1,-8.34
8,COc1ccc(CC(=O)Nc2ccc(Oc3ccccc3)cc2)cc1,-0.0925
9,Cc1nc(NCCCO)c2c3c(sc2n1)CCC3,2.5
10,N#CCCS(=O)(=O)c1cc(Cl)ccc1Cl,-0.736
11,CCc1sc(NC(=O)CCC(=O)O)nc1-c1ccccc1,0.22
12,CC1CCN(S(=O)(=O)c2ccc(NC(=O)c3ccc(Cl)cc3)cc2)CC1,4.75
13,O=C(/C=C/c1ccccc1Cl)NCCc1ccccc1,-0.351
14,CS(=O)(=O)N(CC(=O)Nc1ccc2c(c1)OCCO2)c1cccc(F)c1,69.8
15,Cc1ccc(NC(=O)CSCc2ccc(C#N)cc2)cc1,4.3
16,CC(CN1CCCC1CO)c1ccccc1 (centres unmarked),-2.56
17,CCOc1ccc(N2C(=O)C3C4C=CC(C4=C(C)C)C3C2=O)cc1 (centres unmarked),-2.8
18,CCCC[C@@H](NC(=O)OCc1ccccc1)C(=O)NCC#N,-6.56
19,CC(C)C[C@H](NC(=O)c1cccc(NC(=O)N(C)C2CCN(Cc3ccccc3)C2)c1)C(=O)NCC#N (some centres unmarked),-2.35
20,CC1=NN(c2ccc([N+](=O)[O-])cc2)C(=O)/C1=C/c1ccc(N(C)C)cc1,-6.52
21,COc1ccc(OC)c(CNC(=O)C(C)n2nc(C)c3c(C)n(-c4ccccc4)nc3c2=O)c1 (centres unmarked),-1.03
22,COc1ccc(N2CCN(C(=O)C(C)N(c3ccc(OC)cc3)S(C)(=O)=O)CC2)cc1 (centres unmarked),-4.93
23,Cc1ccc2onc(CC(=O)NCc3ccc(F)cc3)c2c1,-4.42
24,O=C(NCCN1CCCCC1)c1sc2ccccc2c1Cl,2.6
25,Cn1c(=O)[nH]c2nnc(-c3ccc(C(F)(F)F)cc3)nc2c1=O,-1.11

row,Structure (SMILES),% Inhibition @ 10 uM [%]
1,COC(=O)CN(C)C(=O)Oc1ccc(C)cc1,1.66
2,CCCOc1ccc(Oc2nc(NCC(C)C)nc(NC(C)(C)C)n2)nn1,-1.31
3,COc1ccc(C(=O)CSc2nc(O)c(C#N)c(-c3ccccc3)n2)cc1,3.72
4,Cc1ccc(CCNCc2c(C(=O)O)n(Cc3ccccc3Cl)c3ccccc23)cc1,9.46
5,CCCn1c(Oc2ccc(Br)cc2)nc2c1c(=O)n(C)c(=O)n2C,-3.37
6,N#CC1=C(SCc2ccccc2)SC(c2ccccc2O)NC1=O (centres unmarked),-3.76
7,OC(C#CCN1CCCCC1)(c1ccccc1)C1CCCCC1 (centres unmarked),-4.43
8,Cc1nc(-c2ccc(S(=O)(=O)N3CCC(Cc4ccccc4)CC3)cc2)cs1,-2.67
9,COC(=O)c1[nH]c2sc3c(c2c1-n1cccc1)CCCC3,1.52
10,CCCCn1c2ccccc2c2nnc(SCC(=O)NC3=NC(=O)CS3)nc21,-1.33
11,O=C1OC(c2ccc(F)cc2)=N/C1=C\c1ccccc1C(F)(F)F,-0.441
12,O=C1CCC(C(=O)NCc2ccc(Cl)cc2)N1 (centres unmarked),-0.8
13,CCOC(=O)N1CCN(c2c(N3CC=C(c4ccccc4)CC3)c(=O)c2=O)CC1,-3.21
14,O=S(=O)(c1ccccc1F)N1CCN(S(=O)(=O)c2ccccc2F)CC1,5.63
15,COc1ccc(C2NCCc3c2[nH]c2ccccc32)cc1O (centres unmarked),-3.62
16,CC(C)CC(C(=O)NCC#N)c1ccc(NC(=O)NCc2ccncc2)cc1 (centres unmarked),-3.97
17,CC1CCCCN1C(=O)C1CCCN(S(=O)(=O)c2ccccc2)C1 (centres unmarked),4.12
18,CCCN(CCO)C/C(C)=C/c1ccccc1,-7.93
19,CC(C)c1ccc(C2C(C(=O)c3ccccc3)=C(O)C(=O)N2Cc2cccnc2)cc1 (centres unmarked),6.02
20,CCCN1CCC(NC(c2ccccc2)c2ccccc2)CC1,-6.62
21,CCN1CCC(N2CCCC(C)C2)CC1 (centres unmarked),-0.0908
22,O=[N+]([O-])c1ccc(S(=O)(=O)NCc2ccccc2)cc1,-0.0372
23,CCC(=O)Nc1ccc2nc(SCC(=O)NCC3CCCO3)sc2c1 (centres unmarked),-3.9
24,Cn1ncc(Br)c1C(=O)N1CCc2ccccc21,-5.69
25,COc1cc(CN2CCN(c3ccc(C(C)=O)cc3)CC2)cc(OC)c1O,-1.41
